The results in this text go back to paper PMC4624786.

Sequences of proteins named here, by UniProt entry; tags and fusion partners are left off. A change or cut given only in a name is not applied to a line headed by its entry. Residues count along the entry.
UniProt P70182: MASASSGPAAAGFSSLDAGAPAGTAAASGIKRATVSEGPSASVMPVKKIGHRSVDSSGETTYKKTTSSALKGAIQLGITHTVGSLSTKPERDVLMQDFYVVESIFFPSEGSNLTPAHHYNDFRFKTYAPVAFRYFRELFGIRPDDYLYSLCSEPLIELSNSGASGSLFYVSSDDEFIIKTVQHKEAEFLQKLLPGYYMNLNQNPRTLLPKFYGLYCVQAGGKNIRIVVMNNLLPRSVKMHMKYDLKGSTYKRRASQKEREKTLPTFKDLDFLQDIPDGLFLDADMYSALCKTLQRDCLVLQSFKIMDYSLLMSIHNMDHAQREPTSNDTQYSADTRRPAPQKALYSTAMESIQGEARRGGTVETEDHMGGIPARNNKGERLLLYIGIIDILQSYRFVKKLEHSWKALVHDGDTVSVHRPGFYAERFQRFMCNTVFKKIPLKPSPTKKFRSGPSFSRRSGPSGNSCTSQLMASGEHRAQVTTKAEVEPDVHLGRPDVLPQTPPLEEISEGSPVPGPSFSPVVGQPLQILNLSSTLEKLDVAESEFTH
UniProt O70161: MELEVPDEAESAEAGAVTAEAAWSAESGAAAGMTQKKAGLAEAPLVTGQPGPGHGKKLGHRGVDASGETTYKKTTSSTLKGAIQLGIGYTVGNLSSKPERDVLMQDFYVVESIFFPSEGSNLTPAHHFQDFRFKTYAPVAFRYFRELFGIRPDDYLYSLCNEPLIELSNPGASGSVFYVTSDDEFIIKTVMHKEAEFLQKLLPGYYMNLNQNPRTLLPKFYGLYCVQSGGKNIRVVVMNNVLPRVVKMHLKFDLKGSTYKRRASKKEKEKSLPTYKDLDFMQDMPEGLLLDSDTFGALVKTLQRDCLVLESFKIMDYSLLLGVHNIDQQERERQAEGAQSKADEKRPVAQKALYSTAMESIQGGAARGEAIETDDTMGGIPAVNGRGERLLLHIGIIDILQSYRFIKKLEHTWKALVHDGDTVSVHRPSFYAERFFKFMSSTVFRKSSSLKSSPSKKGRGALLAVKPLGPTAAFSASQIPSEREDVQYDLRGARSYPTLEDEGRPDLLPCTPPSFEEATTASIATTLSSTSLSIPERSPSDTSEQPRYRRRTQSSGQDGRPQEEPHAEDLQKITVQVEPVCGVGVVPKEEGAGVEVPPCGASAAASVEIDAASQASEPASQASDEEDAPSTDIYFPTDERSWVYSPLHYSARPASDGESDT
UniProt P11881, residues 224-604: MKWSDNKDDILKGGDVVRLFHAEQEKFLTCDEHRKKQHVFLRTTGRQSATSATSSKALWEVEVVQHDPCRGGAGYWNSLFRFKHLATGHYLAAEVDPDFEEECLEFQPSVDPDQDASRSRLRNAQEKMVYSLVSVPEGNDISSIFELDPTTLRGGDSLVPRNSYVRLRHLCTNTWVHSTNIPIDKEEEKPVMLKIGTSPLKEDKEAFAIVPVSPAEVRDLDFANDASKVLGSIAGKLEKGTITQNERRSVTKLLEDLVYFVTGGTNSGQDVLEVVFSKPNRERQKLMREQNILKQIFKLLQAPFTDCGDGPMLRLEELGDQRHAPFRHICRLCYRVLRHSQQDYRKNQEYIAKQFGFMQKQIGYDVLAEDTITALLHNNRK
UniProt Q80SW1: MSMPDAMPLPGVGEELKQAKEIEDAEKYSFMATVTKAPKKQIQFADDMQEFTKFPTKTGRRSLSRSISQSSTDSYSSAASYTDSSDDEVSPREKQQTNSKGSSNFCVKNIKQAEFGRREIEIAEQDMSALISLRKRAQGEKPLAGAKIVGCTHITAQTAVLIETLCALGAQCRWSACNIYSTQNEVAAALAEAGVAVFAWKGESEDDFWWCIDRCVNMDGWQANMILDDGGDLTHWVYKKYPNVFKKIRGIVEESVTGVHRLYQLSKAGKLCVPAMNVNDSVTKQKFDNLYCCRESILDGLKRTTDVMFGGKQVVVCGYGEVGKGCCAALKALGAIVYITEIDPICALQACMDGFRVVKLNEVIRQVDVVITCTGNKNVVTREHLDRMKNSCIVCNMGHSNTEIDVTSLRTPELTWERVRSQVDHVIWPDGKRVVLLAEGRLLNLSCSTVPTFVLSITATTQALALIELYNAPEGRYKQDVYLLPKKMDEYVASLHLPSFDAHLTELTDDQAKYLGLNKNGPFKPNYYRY

The target of assay [1] is T1, myc-tagged phosphatidylinositol phosphate kinase type IIα (rat) (UniProt Q9R0I8).
T1 sequence: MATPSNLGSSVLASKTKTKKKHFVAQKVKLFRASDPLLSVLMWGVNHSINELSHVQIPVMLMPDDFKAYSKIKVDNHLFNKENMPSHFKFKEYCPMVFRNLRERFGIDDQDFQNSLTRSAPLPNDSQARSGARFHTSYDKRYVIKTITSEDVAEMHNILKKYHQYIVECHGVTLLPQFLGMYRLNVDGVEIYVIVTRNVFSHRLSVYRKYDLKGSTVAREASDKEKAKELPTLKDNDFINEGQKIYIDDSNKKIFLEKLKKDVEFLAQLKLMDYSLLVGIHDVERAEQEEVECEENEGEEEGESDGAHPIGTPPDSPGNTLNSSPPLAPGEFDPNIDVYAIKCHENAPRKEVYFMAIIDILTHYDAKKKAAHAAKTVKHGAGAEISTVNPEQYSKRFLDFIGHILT
Kind of assay: co-IP; COS-7 cells co-transfected with HA-IRBIT and myc-PIPK constructs; lysis buffer 10 mM Hepes pH 7.4, 100 mM NaCl, 2 mM EDTA, 1% Nonidet P-40; precipitated with anti-HA or anti-myc antibody and protein G-Sepharose at 4°C; Western blot. Background: Immunoblotting shows a protein as a band on a membrane.

Assay [2] addresses myc-tagged phosphatidylinositol phosphate kinase type Iα (mouse) (UniProt P70182). The assay is described as above.
The target of assay [3] is PIPKIα, endogenous in mouse cerebellum (mouse (endogenous in cerebellum)) (UniProt P70182). Put plainly: co-IP; mouse cerebellum, membrane fraction, buffers with 1 mM MgCl2 and 1 mM EGTA instead of 2 mM EDTA (S1 Fig B).
Assay [4] has as its target PIPKIγ, endogenous in mouse cerebellum (mouse (endogenous in cerebellum)) (UniProt O70161). Described as above.
In assay [5] the target is PIPKIα, endogenous in mouse cerebellum (mouse (endogenous in cerebellum)) (UniProt P70182). Kind of assay: co-IP; mouse cerebellum, cytosolic fraction, buffers with 1 mM MgCl2 and 1 mM EGTA instead of 2 mM EDTA (S1 Fig B).
For assay [6] the target is unchanged. Kind of assay: co-IP; adult mouse cerebellum, membrane fraction solubilised in 1% Nonidet P-40; antibodies specific to each PIPK isoform pre-bound to protein G-Sepharose, 2 hr at 4°C; buffer with 2 mM EDTA; blot for IRBIT.
Assay [7] has as its target PIPKIγ, endogenous in mouse cerebellum (mouse (endogenous in cerebellum)) (UniProt O70161). The description is as above.
Assay [8] deals with PIPKIα, endogenous in mouse cerebellum (mouse (endogenous in cerebellum)) (UniProt P70182). Put plainly: co-IP; adult mouse cerebellum, cytosolic fraction; antibodies specific to each PIPK isoform pre-bound to protein G-Sepharose, 2 hr at 4°C; buffer 10 mM Hepes pH 7.4, 100 mM NaCl, 2 mM EDTA, 0.5% Nonidet P-40; blot for IRBIT.
The target of assay [9] is IP3 binding domain of IP3R1 (residues 224–604) fused to GST (UniProt P11881). Put plainly: pull-down; COS-7 cell lysates incubated with 10 μg GST fusion protein for 1 hr at 4°C, glutathione-Sepharose 4B, washed with lysis buffer (2 mM EDTA, 1% Nonidet P-40), eluted with 20 mM glutathione; Western blot; only the target purified.
In assay [10] the target is T2, N-terminal cytoplasmic domain of NBCe1-B (residues 1–468) fused to maltose-binding protein (UniProt Q9Y6R1).
T2 sequence: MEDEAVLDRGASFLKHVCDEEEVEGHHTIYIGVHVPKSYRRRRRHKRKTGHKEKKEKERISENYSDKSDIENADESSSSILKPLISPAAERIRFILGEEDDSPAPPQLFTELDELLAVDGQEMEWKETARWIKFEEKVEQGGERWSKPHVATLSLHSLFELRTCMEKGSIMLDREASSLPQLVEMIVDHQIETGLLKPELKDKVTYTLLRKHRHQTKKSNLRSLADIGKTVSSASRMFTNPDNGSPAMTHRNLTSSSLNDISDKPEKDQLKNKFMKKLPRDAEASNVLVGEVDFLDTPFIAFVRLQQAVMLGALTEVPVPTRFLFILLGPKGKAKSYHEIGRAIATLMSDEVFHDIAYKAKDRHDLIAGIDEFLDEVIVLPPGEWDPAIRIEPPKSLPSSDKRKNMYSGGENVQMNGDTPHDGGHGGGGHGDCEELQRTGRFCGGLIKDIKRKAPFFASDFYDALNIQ
Put plainly: pull-down; COS-7 cell lysates (myc-PIPKIα or myc-PIPKIIα with or without HA-IRBIT) incubated with 5 μg MBP fusion protein for 1 hr at 4°C, amylose resin, washed with lysis buffer, eluted with 100 mM maltose; Western blot; only the target purified.

The target in assay [11] is IP3 binding domain of IP3R1 (residues 224–604) fused to GST (UniProt P11881). Put plainly: pull-down; recombinant IRBIT protein (1 μg) with GST fusion proteins on glutathione-Sepharose in pull-down buffer (10 mM Hepes pH 7.4, 100 mM NaCl, 1 mM MgCl2, 1 mM EGTA, 1 mM 2-mercaptoethanol, 0.01% Nonidet P-40), with or without PI4P, PI5P, IP3, ATP, ADP, TTP, or with 2 mM EDTA or 0.25-10 mM …; blot with anti-IRBIT; both purified.

Assay [12] deals with T3, PIPKIIα fused to glutathione S-transferase (rat) (UniProt Q9R0I8).
T3 sequence: T1 sequence
Described as above.

For assay [13], the target named is PIPKIα fused to glutathione S-transferase (mouse) (UniProt P70182). Described as above.

Results are given in words; binding and its absence hold for the method and conditions named. For part of these data: Binding seen in cells or lysates may run through a third protein. Some entries that bind do so weakly or less than the wild type. For part of these data: Tags and fused reporters may be left off the sequences shown.

For “HA-IRBIT-(60–530) (from UniProt Q80SW1 60-530) (domain or fragment)”, the binding result in assay [1] and in assay [2] was “binds” each time.

With “HA-IRBIT-(78–530) (from UniProt Q80SW1 78-530) (domain or fragment)”, the binding entry in assay [1] and in assay [2] was “binds weakly” in each case.

“IRBIT, endogenous in mouse cerebellum (from UniProt Q80SW1 1-530)”: the binding result was “binds” in assay [3]; “binds weakly” in assay [4]; “binds” in assay [5]; “binds” in assay [6]; “binds weakly” in assay [7]; “binds” in assay [8].

For “myc-tagged phosphatidylinositol phosphate kinase type Iα (from UniProt P70182 1-546) (enzyme)”, the figures for the binding entry in assay [9] and in assay [10] were “no binding” and “binds”, respectively.

In the case of “recombinant IRBIT protein expressed in Sf9 cells (from UniProt Q80SW1 1-530)”, the binding result in assay [11], in [12] and in assay [13] was “binds” in each case.
